The term % Inhibition denotes the drop in the measured response relative to a control, in per cent.

Molecules are shown by their SMILES. The whole screen tested about 150,000 compounds, of which about 540 (0.36%) showed an effect of 50% or more. The list shows a part of the results.

This assay has as its system Plasmodium falciparum. Description: Primary screen in NF54 nanoGlo assay, in single point, at 2uM, 72h; a lower Z score goes with more inhibition. Format: functional, Erythrocyte. The following applies: timepoint 72 hour.
With `Oc1ccccc1-c1cc(-c2ccccc2)c2c(ccc3ccccc32)n1`, the “% Inhibition” value is reported as -5% and the Z score was determined as 0.64.

Regarding `N#Cc1ccc(Br)c(F)c1`, the “% Inhibition” value was found to be 6% and the Z score is -0.79.

Turning to `NC(=O)CC[C@@H]1NC(=O)[C@@H]2Cc3c([nH]c4ccccc34)CN2C1=O`, the “% Inhibition” value was found to be 0% and the Z score turned out to be 0.02.

For the compound `Cc1ccc(C)c(CC(=O)N2CCCC[C@H]2c2ccnn2C)c1`, the “% Inhibition” value was -7% and the Z score was 0.85.

`CCc1nnc2c(Oc3cccc(NS(=O)(=O)c4ccccc4C)c3)nc3ccccc3n12`: the “% Inhibition” value came out at 4% and the Z score is -0.47.

For the compound `CC(CCc1ccco1)NC1CCN(CC(F)(F)F)C1` (stereo unspecified), the “% Inhibition” value is recorded as -3% and the Z score is 0.33.

As for `C[C@@H](c1c(F)cccc1F)S(=O)(=O)CC(=O)N1CCCCCCC1`, the “% Inhibition” value is reported as -4% and the Z score is recorded as 0.32.

On to `COc1ccc2nc(N3CC(C(=O)Nc4ccon4)C3)sc2c1`, for which the “% Inhibition” value is -6% and the Z score came out at 0.9.

Consider `O=C1CCCC(=O)N1Cc1ccccc1`, for which the “% Inhibition” value was 3% and the Z score is -0.33.

For `CN(CC(=O)NCCCc1ccco1)c1nnc(N2CCCC2=O)s1`, the “% Inhibition” value was -11% and the Z score was 2.07.

As to `C[C@H]1CN(Cc2nnc(C(C)(C)C)o2)Cc2c[nH]nc21`, the “% Inhibition” value is reported as -2% and the Z score is recorded as 0.28.

As to `Cc1nc(OCC(=O)NCc2ccccc2)c2c(-c3ccc(F)cc3)noc2n1`, the “% Inhibition” value is -3% and the Z score amounted to 0.48.

For `C[C@H]1c2ccsc2CCN1C(=O)C1CCN(C(=O)c2cccs2)CC1`, the “% Inhibition” value is given as -4% and the Z score was determined as 0.5.

In the case of `CN(CC(=O)Nc1nc(CN2CCCCCC2)cs1)C1CC1`, the “% Inhibition” value came to 6% and the Z score was -0.83.

On to `COc1ccc(CNC(=O)c2cc(OC(C)C)c3ccsc3c2)cc1`, for which the “% Inhibition” value was determined as 0% and the Z score was found to be 0.06.

Turning to `Cc1ccc(C(=O)N2C[C@@H]3CN(C(=O)C4CCC4)C[C@]3(C(=O)O)C2)c(C)c1`, the “% Inhibition” value was -3% and the Z score is given as 0.33.

For the compound `CC1CCN(C(=O)CCc2nnc3c4cc(-c5ccc(F)cc5)nn4ccn23)CC1`, the “% Inhibition” value is -8% and the Z score is on record as 1.09.

Regarding `Cc1cccc(S(=O)(=O)CCCN2CCc3nccc(N)c3C2)c1`, the “% Inhibition” value is -1% and the Z score is 0.24.

As for `Cc1ccc(CN2CCN(C(=O)NCc3ccco3)[C@@H](C)C2=O)cc1`, the “% Inhibition” value turned out to be 13% and the Z score is -2.66.

Take `CC(=O)Nc1cccc(S(=O)(=O)NCCc2c(C)n3c4c(cccc24)CCC3)c1`: the “% Inhibition” value came out at 7% and the Z score was -0.77.

Consider `C[C@]1(c2ccc(Cl)cc2)CC(=O)N(Cc2cccnc2C(F)(F)F)C1=O`, for which the “% Inhibition” value is recorded as -4% and the Z score was determined as 0.78.

For the compound `Cc1cccc(NC(=O)Cc2csc(NC(=O)[C@@H]3CCC(=O)N3)n2)c1C`, the “% Inhibition” value is reported as -11% and the Z score was 1.31.

`CC(C)OCC(=O)N1CCC[C@@]2(CCC(=O)N(Cc3ccccc3)C2)C1`: the “% Inhibition” value is on record as -6% and the Z score was 1.29.

For the compound `C=CCNC(=O)C1Cc2ccccc2N2CCN(CCc3ccccc3)CC12` (stereo unspecified), the “% Inhibition” value is recorded as -12% and the Z score amounted to 1.58.

For the compound `C=CCNC(=O)c1ccc(N(C)C[C@H]2CCOC2)nc1`, the “% Inhibition” value is reported as 5% and the Z score is on record as -0.47.

With `CCN(CC)c1ccc(NS(C)(=O)=O)cc1`, the “% Inhibition” value stood at 2% and the Z score is recorded as -0.38.

For `Cc1cc(C)c(C)c(Cn2ccnc2)c1C`, the “% Inhibition” value is -2% and the Z score stood at 0.33.

In the case of `Cc1ccc(C(=O)c2ccccc2C(=O)NCCCN2CCCC2=O)cc1C`, the “% Inhibition” value was 0% and the Z score is on record as -0.04.

For `CCN(CC)S(=O)(=O)c1ccc2c(c1)nnn2CCNC(=O)OC(C)(C)C`, the “% Inhibition” value is listed as -6% and the Z score turned out to be 0.82.

Turning to `Cc1ccc(-c2ncc(C(=O)NCc3ccco3)c(N3CCN(Cc4ccccc4)CC3)n2)cc1`, the “% Inhibition” value was -3% and the Z score was found to be 0.35.

`O=C1N(CC2CC2)CCC[C@@]12CCN(CCS(=O)(=O)c1ccccc1)C2`: the “% Inhibition” value was -3% and the Z score worked out at 0.4.

As for `Cc1cc2ncc(S(C)(=O)=O)c(NC(=O)C3CCCCC3)n2n1`, the “% Inhibition” value is listed as -3% and the Z score came to 0.48.

Turning to `Fc1ccc(-c2cc(-c3ccc(Cl)cc3)c3c(n2)-c2cc(F)ccc2OC3)cc1`, the “% Inhibition” value is on record as 3% and the Z score is given as -0.55.

For the compound `CC(C)COc1ccc(NC(=O)C2CC2c2cnn(C)c2)cn1` (stereo unspecified), the “% Inhibition” value is recorded as -4% and the Z score is on record as 0.58.

Regarding `CCOc1ccccc1[C@@](N)(C(=O)NCCc1cc(F)cc2c1OCOC2)C(F)(F)F`, the “% Inhibition” value was -11% and the Z score was 1.74.

With `Cc1cc(=O)n(CCN2CCOCC2)c2c1c(C)nn2-c1ccccc1`, the “% Inhibition” value was -23% and the Z score was 2.71.

For `COC[C@@H]1[C@H](NC(=O)Cc2ccc(O)c(Cl)c2)[C@H]2CCO[C@H]21`, the “% Inhibition” value was -9% and the Z score is 0.88.

Regarding `O=C([C@@H]1CC(c2ccccc2)=NO1)N1CCCCC1`, the “% Inhibition” value is on record as -9% and the Z score is recorded as 1.36.

As to `CCCNC(=O)c1ccc(Br)cn1`, the “% Inhibition” value is listed as -18% and the Z score was 2.01.

As for `COCc1noc(CNc2cc(C(C)C)ncn2)n1`, the “% Inhibition” value is recorded as -13% and the Z score worked out at 1.15.

`COc1ccc(-c2cc3cc(OC)c(OC)cc3c(-c3ccccc3Cl)n2)cc1OC`: the “% Inhibition” value is reported as -2% and the Z score was found to be 0.23.

With `O=C(O)COc1ccc(CCNC(=O)Cc2ccn(-c3ccccc3)n2)cc1`, the “% Inhibition” value is given as -2% and the Z score is 0.38.

Turning to `Cc1ccc(CNC(=O)c2scc(-c3cccc(F)c3)c2S(=O)(=O)N(C)c2ccccc2)cc1`, the “% Inhibition” value is on record as -9% and the Z score turned out to be 1.01.
